From publication PMC4336329 (PLoS ONE, 2015)
Screen size: about 310,000 compounds; about 14,000 (4.5%) showed an effect of 50% or more. The effect is printed as a negative number. Some of the results follow.

Target: human ether-à-go-go-related gene (hERG) potassium channel (human, UniProt Q12809)
Assay: primary screen, population patch clamp on CHO cells stably expressing hERG
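Note: peak tail current of the secondary pulse compared with the same well before compound.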

Sequence of human ether-à-go-go-related gene (hERG) potassium channel (Q12809 whole entry, looked up): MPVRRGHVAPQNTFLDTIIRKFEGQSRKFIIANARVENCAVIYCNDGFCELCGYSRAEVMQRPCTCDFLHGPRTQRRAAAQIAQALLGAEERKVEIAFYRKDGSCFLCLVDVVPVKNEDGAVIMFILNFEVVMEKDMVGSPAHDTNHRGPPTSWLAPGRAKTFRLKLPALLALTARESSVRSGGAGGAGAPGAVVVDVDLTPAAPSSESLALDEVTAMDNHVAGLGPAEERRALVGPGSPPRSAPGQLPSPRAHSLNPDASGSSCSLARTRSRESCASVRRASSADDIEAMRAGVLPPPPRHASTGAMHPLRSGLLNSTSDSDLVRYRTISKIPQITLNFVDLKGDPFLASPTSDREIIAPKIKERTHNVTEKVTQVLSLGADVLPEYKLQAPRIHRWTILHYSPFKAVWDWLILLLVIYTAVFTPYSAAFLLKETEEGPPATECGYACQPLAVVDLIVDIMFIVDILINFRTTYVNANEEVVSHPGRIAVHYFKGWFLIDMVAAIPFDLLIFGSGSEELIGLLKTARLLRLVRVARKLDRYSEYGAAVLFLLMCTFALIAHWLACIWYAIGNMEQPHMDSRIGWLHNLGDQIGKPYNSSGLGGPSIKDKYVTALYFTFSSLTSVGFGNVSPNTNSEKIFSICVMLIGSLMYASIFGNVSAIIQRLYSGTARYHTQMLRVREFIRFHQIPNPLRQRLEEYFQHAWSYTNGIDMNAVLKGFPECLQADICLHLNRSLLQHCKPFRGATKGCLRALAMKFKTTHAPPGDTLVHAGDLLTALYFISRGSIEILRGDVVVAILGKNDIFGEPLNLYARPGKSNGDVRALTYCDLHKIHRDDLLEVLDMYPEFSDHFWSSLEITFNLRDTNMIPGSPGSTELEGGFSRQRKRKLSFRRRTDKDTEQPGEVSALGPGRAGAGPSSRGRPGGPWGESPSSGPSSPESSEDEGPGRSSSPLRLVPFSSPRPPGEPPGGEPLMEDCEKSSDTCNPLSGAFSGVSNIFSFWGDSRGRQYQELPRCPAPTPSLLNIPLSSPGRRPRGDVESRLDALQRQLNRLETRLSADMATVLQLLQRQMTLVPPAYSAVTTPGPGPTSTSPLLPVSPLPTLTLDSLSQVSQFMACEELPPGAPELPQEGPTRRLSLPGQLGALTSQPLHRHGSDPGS

Structure (SMILES) | hERG current change (%, negative = inhibition) at 10uM
COc1ccc(NC(=O)CSc2ccc3nnc(CCNC(=O)c4ccccc4)n3n2)cc1 | -16.5%
C(=C\c1ccccc1)/CNn1cnnc1 | 11.9%
COc1cc(C(=O)COC(=O)Cc2cnc3sccn23)cc(OC)c1OC | 11%
CC(=O)Nc1ccc(NC(=O)c2ccco2)cc1 | 4.54%
C=CCc1ccc(OCCCCN2CCC(C)CC2)c(OC)c1 | -69.6%
COc1ccc(Cl)cc1NC(=O)NC(C)C(C)(C)C (centres unmarked) | 5.53%
Cc1ccc(-n2ncc3c(N4CCC5(CC4)OCCO5)ncnc32)c(C)c1 | 14.5%
CCOc1cc(/C=C2\C(=N)N3N=C(S(C)(=O)=O)SC3=NC2=O)ccc1OCCOc1cccc(OC)c1 | 13.2%
O=C(O)c1cnn2c(C(F)(F)F)cc(-c3ccco3)nc12 | 13.4%
COc1cc(NC(=O)c2csc(-c3ccncc3)n2)cc(C(=O)Nc2cccc(C(F)(F)F)c2)c1 | -48.7%
COc1ccc(N2CCCCn3c2nc2c3c(=O)n(C)c(=O)n2C)cc1 | -22.1%
CCN(Cc1nc(-c2ccc(C)cc2)no1)C(=O)c1ccco1 | 10.6%
COc1ccc(N(CC(=O)NCCSCc2ccco2)S(=O)(=O)c2ccccc2)cc1Cl | 1.48%
CCn1ncc(/C=N\NC(=O)COc2cc(C)cc(C)c2)c1C | 1.65%
CSc1ccccc1C(=O)Nc1cc(C)cc(C)c1 | 2.15%
O=c1n(Cc2ccc(Cl)cc2)c2sc3c(c2c2ncnn12)CCCC3 | -39.1%
C[C@@]12CCC[C@@](C)(C(=O)O)C1CC[C@@]13C[C@@H](NCc4ccccc4)[C@@](C)(CCC12)C3 (some centres unmarked) | 5.04%
O=C(c1ccc(CS(=O)c2ccccc2Cl)o1)N1CCN(c2ccccn2)CC1 (centres unmarked) | -42.5%
O=C(c1ccc(Cl)c(S(=O)(=O)N2CCCC2)c1)N1CCCCC1 | 3.08%
O=c1[nH]c(-c2ccc3c(c2)OCO3)nc2c1sc(=S)n2-c1ccccc1 | 15.4%
CCOc1ccc(NS(=O)(=O)c2cc(NC(=O)c3cccc(C)c3)ccc2Cl)cc1 | 8.35%
CC(/C=C/C=C/c1ccccc1)=N/NC(=O)c1ccc2c(c1)OCCO2 | 7.79%

Structure (SMILES) | hERG current change (%, negative = inhibition) at 10uM
Cc1ccc(N(CC(=O)NCC2CCCO2)C(=O)Cn2nnc(-c3cccs3)n2)cc1 (centres unmarked) | -24.9%
CC(C)c1nc2scc(-c3ccc(Cl)cc3)c2c(=O)n1N | -16%
OCC1(Cc2ccc(Cl)cc2)CCN(Cc2ccc(F)c(F)c2)CC1 | -68.6%
O=C1NCCCC1C(=O)N/N=C/c1ccccc1 (centres unmarked) | -4.35%
Cl.O=C(CNC1=NCCC1)c1ccc2c(c1)OCCO2 | 3.43%
Cc1cc(C)nc(N2CCCC(C(=O)NCC(c3ccccc3)c3ccccc3)C2)n1 (centres unmarked) | -0.251%
Cc1c(C(=O)NC2=NCCS2)cccc1[N+](=O)[O-] | 11.4%
CCN1C(=O)/C(=C/c2ccc(C)s2)NC1=S | -2.86%
CC(C)(C)NC(=O)CN(C(=O)CNC(=O)c1cccs1)c1ccccc1F | 10.2%
S=c1[nH]nc(Cc2ccc(Cl)cc2)o1 | 18.1%
COC(=O)c1cccc(COC(=O)c2ccc(CS(=O)(=O)c3ccc(C)cc3)cc2)c1 | 2.77%
O=C(NC1CCCC1)C(c1ccccn1)N(Cc1ccccc1F)C(=O)c1csnn1 (centres unmarked) | -2.45%
Cc1ccc(S(=O)(=O)N(CC(O)CN2C(=O)NC(C)(C)C2=O)c2cccc(C)c2)cc1 (centres unmarked) | 10.4%
CCOc1cc(S(=O)(=O)N2CCC(C(N)=O)CC2)ccc1F | -16.4%
CCOc1ccc(NC(=S)NCc2nc3ccccc3[nH]2)cc1 | -74%
O=C(NCCc1ccc(F)cc1)c1coc(=O)c(Br)c1 | 13%
COc1ccc(CNC(=O)c2ccccc2SC)cc1 | -3.84%
O=C(N/N=C\c1cc(Br)c(Br)o1)C1COc2ccccc2O1 (centres unmarked) | 6.93%
COc1ccc(CN2C(=O)C(Cc3ccccc3)Nc3ncnc(N4CCCCC4)c32)cc1.O=C(O)C(F)(F)F (centres unmarked) | -7.89%
COCCCNC(=S)NNC(=O)Cn1nc(C)c(Br)c1C | 14.4%
Cc1cccc(N2CCN(C(=S)Nc3ccc4nc5n(c(=O)c4c3)CCCCC5)CC2)c1C | -15.6%
Cc1ccc(S(=O)(=O)NCCC(=O)NCC(c2cccs2)N(C)C)cc1 (centres unmarked) | -2.07%
